Data on 172 sequences can be found in PMC6212790.

The other results are listed elsewhere or left out. At the low end of the ranking the order means little.

For this assay, the target named is T1, GST-Rok (full length) (UniProt O34857).
T1 sequence: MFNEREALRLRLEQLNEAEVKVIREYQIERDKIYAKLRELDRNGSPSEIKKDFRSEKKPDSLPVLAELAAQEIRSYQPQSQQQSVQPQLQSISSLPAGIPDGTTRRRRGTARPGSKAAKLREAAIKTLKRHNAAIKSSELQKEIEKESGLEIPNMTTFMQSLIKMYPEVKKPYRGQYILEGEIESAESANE
Nature of the assay: protein binding microarray.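 Note: rank score from −0.5 (least bound) to 0.5 (best bound).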 As to conditions: Rok is a gene silencer of Bacillus subtilis; high values mean tight binding; most listed sequences are background and not binding sites; double strand, one strand shown.
In turn, AGACCCCT came in with a binding signal of -0.409 E-score.
On to AATCCCTC, for which the binding signal is -0.195 E-score.
The sequence AGCGTTTA returned a binding signal of 0.164 E-score.
The value for GCCTAGCA was -0.171 E-score.
The value for GACTTCCC was -0.0931 E-score; that for ATACCCGA was 0.0119 E-score; that for ATTACCGA was 0.142 E-score.
For CTGGCGAA the value was -0.183 E-score; for AACGTTAA, 0.123 E-score; for CCTATTTC, -0.0235 E-score.
Consider AAAGGTCA, for which the binding signal came out at 0.0157 E-score.
For ACCTACAG the value was 0.0467 E-score; for CCATCTTC, 0.0549 E-score; for ACAGTCAC, -0.155 E-score.
For CCGCTAGC the value was 0.0196 E-score; for ACATTCAA, 0.161 E-score.
For ATCTACAA the value was 0.276 E-score; for GGTGATAA, 0.163 E-score.
Consider ATCGGGCC, for which the binding signal was -0.309 E-score.
The value for GTTTACTA was 0.278 E-score; that for CACCAAAG was -0.0144 E-score; that for GATTCTGA was -0.0104 E-score.
Sequence GATAATTA had a binding signal of 0.223 E-score.
ATAGCGTC yielded a binding signal of 0.127 E-score.
The value for GTGTGCCA was -0.177 E-score; that for GCTATAGC was 0.206 E-score; that for CCAGTTGC was 0.0438 E-score.
For CAGATGTC the value was 0.128 E-score; for GGGAACCC, -0.281 E-score; for GAAACCTA, 0.123 E-score.
As for GGTAAAGA, the binding signal is 0.156 E-score.
For ACTATAGG the value was 0.0843 E-score; for GAGTACGA, 0.0148 E-score.
The value for GGGCTGTA was -0.00207 E-score.
The value for GCCTTTCC was -0.376 E-score; that for GTAGGCAC was -0.129 E-score.
Sequence CTTTGCTC showed a binding signal of -0.0932 E-score.
TCCAGCAA showed a binding signal of 0.155 E-score.
ATTGACTC displayed a binding signal of -0.0934 E-score.
The sequence ACCAAGCT showed a binding signal of 0.138 E-score.
For ACCGTCCC the value was -0.254 E-score.
For CTTATTGA the value was -0.157 E-score; for AGGATCCG, -0.00887 E-score; for ACCGAGCT, -0.0523 E-score.
For AACGTGAT the value was 0.134 E-score; for GTGGAGCA, -0.0352 E-score; for ACACGCCT, -0.0198 E-score.
For the sequence AATTAGCA, the binding signal amounted to 0.271 E-score.
As to AGGAACGC, the binding signal is -0.222 E-score.
The value for CTTGCGCA was -0.0792 E-score; that for ACCATAAT was 0.206 E-score.
GATGGGAA: the binding signal was -0.056 E-score.
The value for CGAGATTA was 0.24 E-score.
The value for GTGAATAA was -0.00672 E-score; that for CTTGCGAA was -0.248 E-score.
Consider AATGTACC, for which the binding signal is 0.321 E-score.
For CCGGTAGG the value was -0.0731 E-score; for AACCTCAG, 0.179 E-score.
The value for AACTCGGG was -0.034 E-score; that for GGGTCACA was -0.0349 E-score.
In turn, AGACTCCG returned a binding signal of -0.167 E-score.
GTCACCGA came in with a binding signal of -0.0907 E-score.
On to ACGGGAGG, for which the binding signal is -0.226 E-score.
For ACTTCCTC the value was -0.29 E-score.
AGATGATG came in with a binding signal of -0.0712 E-score.
As to TCCCCCGA, the binding signal was -0.401 E-score.
The sequence CAAGAAGC came in with a binding signal of -0.164 E-score.
For ATCAATCA the value was 0.114 E-score; for ATGCGGCG, -0.107 E-score; for CCGCGGCC, -0.364 E-score.
For GACGTTCA, the binding signal is -0.127 E-score.
The value for ACTGGTCC was -0.145 E-score; that for ATAAGTTG was 0.211 E-score; that for TCCCCAAA was -0.169 E-score.
The value for AATGTTAG was 0.105 E-score; that for AAATAAGA was 0.134 E-score; that for AAGGGACG was -0.273 E-score.
AGCGGTTG showed a binding signal of -0.114 E-score.
For AAGCTTAC the value was 0.118 E-score.
As for ATTTTAAA, the binding signal was determined as 0.126 E-score.
Turning to CCTATTCA, the binding signal was -0.0574 E-score.
TACGTCCA yielded a binding signal of -0.0463 E-score.
For CAATTAAA the value was 0.187 E-score; for TGTCCGAA, -0.0878 E-score; for CACAGCCC, -0.126 E-score.
For AGGCAGAT the value was -0.293 E-score; for GTATCACA, 0.187 E-score; for AAATAGGC, 0.00361 E-score.
ATAGTGCC returned a binding signal of -0.121 E-score.
With AGATAGTA, the binding signal is 0.347 E-score.
For GAGCTATA the value was 0.145 E-score; for CCCCCTCA, -0.421 E-score.
In the case of GCACGGCC, the binding signal was -0.21 E-score.
For ATATATGG the value was 0.299 E-score; for CGCACAGA, -0.0479 E-score; for GTAGGCTA, 0.101 E-score.
The value for AGAAACTC was 0.158 E-score; that for GAGGAGGA was -0.317 E-score; that for ACGTGCGA was -0.0508 E-score.
With GTAAACAA, the binding signal was 0.0786 E-score.
The value for CCGTCAGG was -0.328 E-score; that for ACCGAGAT was 0.0591 E-score; that for ATAGACTC was 0.0376 E-score.
For CACAAAAG the value was -0.0697 E-score; for CCGTTCTC, -0.0253 E-score.
As to GGCCATTA, the binding signal was -0.0263 E-score.
For GCGGGCAC the value was -0.205 E-score.
The value for GATCGACA was -0.231 E-score.
The value for AAGGCCCC was -0.456 E-score.
As to ACGAGGTC, the binding signal came to 0.0222 E-score.
The value for ACGCACTC was 0.0403 E-score; that for CCGCACAA was -0.137 E-score.
The value for CCATTTGA was -0.202 E-score.
For ACTCCTAA the value was 0.136 E-score.
On to AATGTTCG, for which the binding signal was -0.0446 E-score.
For CCATCCGG the value was -0.163 E-score; for CGGAGTAA, -0.0891 E-score; for CAGAGCGA, -0.261 E-score.
The value for CTTTACAC was 0.0178 E-score; that for ACGAGCGC was -0.217 E-score; that for ATCACTTA was 0.19 E-score.
The value for CAGTATAC was 0.249 E-score.
Sequence AACACGAT yielded a binding signal of 0.145 E-score.
For CGACTGAA the value was 0.0531 E-score; for CCGCCAGC, -0.259 E-score.
CCGCATGA had a binding signal of -0.265 E-score.
Consider CTTTAGTA, for which the binding signal came to 0.23 E-score.
For AGCCGGCA the value was -0.19 E-score; for ATCCTGGA, 0.0181 E-score; for CGACTAGA, -0.00813 E-score.
The value for TACGACAA was 0.152 E-score; that for CATAATGA was 0.206 E-score.
Regarding GCACTATA, the binding signal came out at 0.171 E-score.
The value for GCACAAGA was -0.113 E-score; that for GCGCCCCA was -0.427 E-score.
The value for CATGCAGA was -0.0337 E-score; that for GAACCGGA was -0.234 E-score; that for ATTGCCTC was -0.0913 E-score.
The value for TAAATCCA was 0.271 E-score.
On to AGCCTGAG, for which the binding signal is -0.232 E-score.
For CTAACTAC the value was 0.397 E-score; for ACTGGTAG, 0.252 E-score.
For GAAGCAGA the value was 0.0364 E-score; for TACCCGGA, -0.00401 E-score.
The value for GTTACCTA was 0.0966 E-score.
Consider GCTGCATA, for which the binding signal amounted to 0.0742 E-score.
For AAAACAAT the value was 0.245 E-score.
The value for CTGCGTAA was 0.0267 E-score; that for ATGCTTAG was 0.0152 E-score.
The value for AATCCAGA was 0.0616 E-score.
On to CAAGTTGG, for which the binding signal was -0.082 E-score.
The value for GTGGGTTA was -0.107 E-score.
The value for GCCCGTAA was -0.148 E-score.
For CATCGTCG the value was 0.0751 E-score; for TCTGGCCA, -0.144 E-score.
As for ACCAACTG, the binding signal was -0.207 E-score.
For CCAATAGC the value was -0.0527 E-score; for GCAACGAC, -0.0786 E-score; for ATCGCGGG, -0.192 E-score.
Consider ACCCACGG, for which the binding signal was -0.147 E-score.
As to GTAAGTTA, the binding signal is 0.264 E-score.
The value for CCATCCTA was -0.102 E-score; that for CCGGAGCG was -0.238 E-score; that for GGTGTTAC was 0.064 E-score.
For AGGATGTC the value was -0.198 E-score; for CCTTTCGA, -0.249 E-score; for CGCCCTGC, -0.364 E-score.
The value for AGTAAACC was 0.161 E-score; that for ATACCCCC was -0.244 E-score; that for AAGAGCAC was -0.268 E-score.
GCTATCCC came in with a binding signal of -0.0139 E-score.
With AAGCCCGG, the binding signal was -0.252 E-score.
